The list shows a part of the results.
Assays:
HSkMC = human skeletal muscle cells; test: cytotoxicity call (relative viability < 0.9); settings: 10 µM
HepG2 = test: cytotoxicity call (relative viability < 0.9); settings: 10 µM
S. aureus RN4220 = test: growth inhibition call (relative growth <= 0.2); settings: 50 µM

SMILES	cytotoxicity call (HSkMC)	cytotoxicity call (HepG2)	growth inhibition call (S. aureus RN4220)
COc1cccc(S(=O)(=O)N2C[C@H](O)COC[C@H]3O[C@H](CC(=O)N4CCN(C)CC4)CC[C@@H]32)c1	inactive	inactive	inactive
Cc1ccc(Nc2nnc(-c3ccccc3)c3ccccc23)cc1	inactive	active	inactive
C[C@@H]1CCCCO[C@@H](CN(C)C(=O)C2CCCCC2)[C@@H](C)CN([C@H](C)CO)C(=O)c2cc(NS(=O)(=O)c3cccs3)ccc2O1	inactive	active	inactive
C[C@@H]1CN([C@@H](C)CO)C(=O)c2cc(NS(C)(=O)=O)ccc2O[C@H]1CN(C)C(=O)Nc1ccccc1	inactive	inactive	inactive
COc1ccc(S(=O)(=O)Nc2ccc3c(c2)C(=O)N([C@@H](C)CO)C[C@H](C)[C@@H](CN(C)C(=O)Nc2ccc(C(F)(F)F)cc2)OCCCC[C@@H](C)O3)cc1	inactive	active	inactive
C[C@@H]1CCCCO[C@@H](CN(C)Cc2ccncc2)[C@@H](C)CN([C@H](C)CO)C(=O)c2cc(NC(=O)Nc3cccc4ccccc34)ccc2O1	inactive	inactive	inactive
C[C@H]1CCCCO[C@H](CN(C)S(=O)(=O)c2cccs2)[C@@H](C)CN([C@@H](C)CO)C(=O)c2cc(NC(=O)Nc3cccc4ccccc34)ccc2O1	inactive	inactive	inactive
CN(C)c1ccc(C(=C2C=CC(=[N+](C)C)C=C2)c2ccc(N(C)C)cc2)cc1.[Cl-]	active	active	inactive
C[C@H](CO)N1C[C@H](C)[C@H](CN(C)C(=O)Nc2cccc3ccccc23)OCCCC[C@H](C)Oc2ccc(NS(=O)(=O)c3cccs3)cc2C1=O	inactive	inactive	inactive
C[C@H]1CN([C@@H](C)CO)C(=O)Cc2cc(NC(=O)CCCCCC(=O)Nc3ccccc3N)ccc2O[C@@H]1CN(C)CC1CCCCC1	inactive	inactive	inactive
COCC#Cc1ccc2c(c1)O[C@H](CN(C)S(=O)(=O)c1cccc(OC)c1)[C@H](C)CN([C@H](C)CO)S2(=O)=O	inactive	inactive	inactive
COc1ccc(S(=O)(=O)Nc2ccc3c(c2)C(=O)N([C@H](C)CO)C[C@@H](C)[C@@H](CN(C)Cc2ccncc2)O3)cc1	inactive	inactive	inactive
COc1ccc(NC(=O)Nc2ccc3c(c2)C(=O)N([C@H](C)CO)C[C@H](C)[C@H](CN(C)Cc2ccccc2)OCCCC[C@H](C)O3)cc1	inactive	active	inactive
CO[C@H](CN(C)S(=O)(=O)c1ccc(F)cc1)[C@H](C)CN([C@@H](C)CO)S(=O)(=O)c1cccc(Cl)c1	inactive	inactive	inactive
C[C@@H]1CCCCO[C@@H](CN(C)S(=O)(=O)c2ccc(Cl)cc2)[C@@H](C)CN([C@H](C)CO)C(=O)c2cc(NS(=O)(=O)c3ccccc3)ccc2O1	inactive	inactive	inactive
C[C@H]1CN([C@@H](C)CO)C(=O)c2cccc(NC(=O)Nc3ccc(C(F)(F)F)cc3)c2O[C@H]1CN(C)Cc1ccc(Cl)c(Cl)c1	active	inactive	inactive
CC(C)c1nc(/N=C/N(C)C)nc(=O)n1C	inactive	inactive	inactive
COc1ccc(NC(=O)N(C)C[C@H]2Oc3ccc(NC(=O)CCCCCC(=O)Nc4ccccc4N)cc3CC(=O)N([C@H](C)CO)C[C@@H]2C)cc1	inactive	inactive	inactive
COc1ccc(NC(=O)N(C)C[C@@H]2Oc3ccc(NC(=O)Nc4ccc(C(F)(F)F)cc4)cc3CC(=O)N([C@H](C)CO)C[C@H]2C)cc1	inactive	inactive	inactive

SMILES	cytotoxicity call (HSkMC)	cytotoxicity call (HepG2)	growth inhibition call (S. aureus RN4220)
CCCNC(=O)[C@@]1(Sc2ccc(C)cc2)CC(=O)N(Cc2ccccc2C(F)(F)F)[C@@H]1c1ccc(CO)cc1I	inactive	inactive	inactive
C[C@H](CO)N1C[C@H](C)[C@H](CN(C)Cc2cncnc2)Oc2cc(C3=CCCCC3)ccc2S1(=O)=O	inactive	inactive	inactive
CCCNC(=O)C[C@@H]1CC[C@H]2[C@@H](COc3ccc(NC(=O)c4ccc5c(c4)OCO5)cc3C(=O)N2C)O1	inactive	inactive	inactive
Cc1ccnc(N)c1	inactive	inactive	inactive
O=C(Nc1cc(C(F)(F)F)ccc1-n1cnc2ccccc21)c1ccc(S(=O)(=O)N2CCCC2)cc1	inactive	inactive	inactive
C[C@@H]1CN([C@@H](C)CO)C(=O)Cc2cc(NC(=O)NC3CCCCC3)ccc2O[C@H]1CN(C)C(=O)Nc1ccc(C(F)(F)F)cc1	inactive	inactive	inactive
C=CCSCC=C	inactive	inactive	inactive
C[C@H](O)c1nc(=O)c2ccccc2[nH]1	inactive	inactive	inactive
CN(C)CN1C(=O)c2ccccc2C1=O	inactive	inactive	inactive
CCCCc1nc(-c2ccc(OCCCN(CC)CC)cc2)cn1-c1ccc(Oc2ccc(Cl)cc2)cc1	active	active	active
Cc1noc(C)c1NC(=O)Nc1cccc2c1O[C@H](CN(C)C(=O)NC(C)C)[C@H](C)CN([C@@H](C)CO)C2=O	inactive	inactive	inactive
Cc1ccc(S(=O)(=O)N(C)C[C@@H]2Oc3ccc(NC(=O)NC(C)C)cc3C(=O)N([C@H](C)CO)C[C@H]2C)cc1	inactive	inactive	inactive
NS(=O)(=O)OCCCCCCCOS(N)(=O)=O	inactive	inactive	inactive
CN1C(=O)c2cc(NC(=O)C3CCC3)ccc2OC[C@@H]2O[C@@H](CC(=O)NCCc3ccncc3)CC[C@@H]21	inactive	inactive	inactive
C[C@H]1CCCCO[C@@H](CN(C)C(=O)c2ccccc2)[C@@H](C)CN([C@@H](C)CO)C(=O)c2cc(NC(=O)Cc3ccccc3)ccc2O1	inactive	inactive	inactive
C[C@H](CO)N1C[C@H](C)[C@H](CN(C)Cc2ccc(Cl)c(Cl)c2)Oc2c(NC(=O)NC3CCCCC3)cccc2C1=O	inactive	inactive	inactive
COc1ccc(NC(=O)N(C)C[C@H]2OCCCC[C@@H](C)Oc3ccc(NC(=O)Nc4ccc5c(c4)OCO5)cc3C(=O)N([C@H](C)CO)C[C@H]2C)cc1	inactive	inactive	inactive
C[C@@H]1CCCCO[C@@H](CN(C)C(=O)CCC(F)(F)F)[C@H](C)CN([C@@H](C)CO)C(=O)c2cc(NC(=O)C3CCCCC3)ccc2O1	inactive	inactive	inactive
COc1ccc2c3c([nH]c2c1)[C@H](CO)N(C[C@]13CN(CC2CCOCC2)C1)S(=O)(=O)c1cn(cn1)C	inactive	inactive	inactive

SMILES	cytotoxicity call (HSkMC)	cytotoxicity call (HepG2)	growth inhibition call (S. aureus RN4220)
C[C@H](CO)N1C[C@H](C)[C@H](CN(C)S(C)(=O)=O)Oc2ncc(C#CCN(C)C)cc2C1=O	inactive	inactive	inactive
CC(C)[C@H]1NC(=O)CNC1=O	inactive	inactive	inactive
C[C@H](CO)N1C[C@H](C)[C@H](CN(C)Cc2ccc(-c3ccccc3)cc2)Oc2ccc(NC(=O)C3CCCCC3)cc2C1=O	inactive	active	inactive
C[C@@H]1CCCCO[C@@H](CN(C)Cc2ccc(C(=O)Nc3ccccc3N)cc2)[C@@H](C)CN([C@H](C)CO)C(=O)c2cc(NC(=O)Nc3ccc(F)cc3)ccc2O1	inactive	inactive	inactive
CCC(=O)N(C)C[C@H]1Oc2ncc(C#C[C@@H](C)O)cc2C(=O)N([C@@H](C)CO)C[C@@H]1C	inactive	inactive	inactive
CCCCS(=N)(=O)CC[C@@H](N)C(=O)O (stereo partly drawn)	inactive	inactive	inactive
CC(=O)OC1C(=O)C2(C)C(O)CC3OCC3(OC(C)=O)C2C(OC(=O)c2ccccc2)C2(O)CC(OC(=O)C(O)C(NC(=O)c3ccccc3)c3ccccc3)C(C)=C1C2(C)C (stereo not drawn)	inactive	active	inactive
CN1C(=O)c2cc(NC(=O)C3CCCC3)ccc2OC[C@@H]2O[C@@H](CC(=O)NCCc3ccncc3)CC[C@H]21	inactive	inactive	inactive
C[C@@H]1CCCCO[C@@H](CN(C)C(=O)Nc2ccc(C(F)(F)F)cc2)[C@@H](C)CN([C@H](C)CO)C(=O)c2cc(NC(=O)CCCCCC(=O)Nc3ccccc3N)ccc2O1	inactive	inactive	inactive
CC(=O)N(C)C[C@H]1Oc2ncc(C#CC(C)(C)O)cc2C(=O)N([C@H](C)CO)C[C@@H]1C	inactive	inactive	inactive
C[C@@H]1CCCCO[C@@H](CN(C)S(=O)(=O)c2cccs2)[C@@H](C)CN([C@@H](C)CO)C(=O)c2cc(NC(=O)CCC(F)(F)F)ccc2O1	inactive	inactive	inactive
Cc1ccc(S(=O)(=O)N(C)C[C@@H]2OCCCC[C@@H](C)Oc3ccc(NS(C)(=O)=O)cc3C(=O)N([C@@H](C)CO)C[C@H]2C)cc1	inactive	inactive	inactive
Cc1noc(C)c1NC(=O)Nc1cccc2c1O[C@@H](CN(C)Cc1ccc(-c3ccccc3)cc1)[C@@H](C)CN([C@@H](C)CO)C2=O	inactive	inactive	inactive
C[C@H](CO)N1C[C@H](C)[C@H](CN(C)Cc2ccc3c(c2)OCO3)Oc2ccc(NC(=O)c3ccncc3)cc2CC1=O	inactive	inactive	inactive
COc1ccc(CN(C)C[C@H]2Oc3ccc(NC(=O)Nc4cccc5ccccc45)cc3CC(=O)N([C@@H](C)CO)C[C@H]2C)cc1	inactive	active	inactive
C[C@@H]1CN([C@H](C)CO)C(=O)c2cccc(NS(C)(=O)=O)c2O[C@@H]1CN(C)C(=O)Nc1ccc(C(F)(F)F)cc1	inactive	inactive	active
O=C(C[C@H]1CC[C@@H]2[C@H](COC[C@@H](O)CN2S(=O)(=O)c2ccc(F)cc2)O1)NCc1ccc(Cl)c(Cl)c1	inactive	inactive	inactive
C[C@@H]1CN([C@H](C)CO)C(=O)c2cccc(NC(=O)Nc3ccc(C(F)(F)F)cc3)c2O[C@H]1CN(C)S(=O)(=O)c1ccc(Cl)cc1	inactive	inactive	inactive

Source: the antibiotic and cytotoxicity screens of Wong et al. (2023)
